# Source: PubChem BioAssay (NCATS)
# The shares of active, inactive and inconclusive entries below differ from those in the screen. The call rests on the fitted dose curve; in most records, active means well fitted activation curve with a large enough effect; inconclusive means small, poorly fitted or top-dose-only effect, or effect the other way; inactive means flat fitted curve, though single readings scatter. Potencies of inconclusive entries are left out as doubtful fits.
# Experiment: qHTS Assay for Identification of Small Molecule Agonists for Thrombopoietin (TPO) Signaling Pathway (AID 917)
# Conditions: TPO signaling pathway reporter cells, agonist qHTS, stimulated with TPO at its EC50; series mostly up to 38.5 µM
# How it was run: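 Human TPO receptor–transfected Ba/F3 cells (murine, IL-3-dependent) in IL-3-deficient medium; compounds plus TPO at EC50, 26 pM final; 24 hrs, 37 C; GpIIb-luciferase luminescence after 10 min RT detection.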
# Potency means the concentration at half of the fitted maximal effect; tags describe the fitted curve by direction and shape.
row,Structure (SMILES),Potency
1,CCCC1O[C@@H]2C[C@H]3[C@@H]4CCC5=CC(=O)C=C[C@]5(C)[C@H]4[C@@H](O)C[C@]3(C)[C@]2(C(=O)CO)O1 (stereo partly drawn),"inconclusive [inhibitor, full curve]"
2,COc1cc(C(=O)OCCCN2CCCN(CCCOC(=O)c3cc(OC)c(OC)c(OC)c3)CC2)cc(OC)c1OC,"inconclusive [inhibitor, partial curve]"
3,NC[C@H](O)c1ccc(O)c(O)c1,"inconclusive [inhibitor, partial curve]"
